# Assay results taken from PubChem BioAssay AID2546 (National Center for Advancing Translational Sciences (NCATS), 2010).
# The campaign covered roughly 310,000 compounds. About 11,000 (3.5%) were called active. The shares of active, inactive and inconclusive entries below differ from those in the screen. The call rests on the fitted dose curve; in most records, active means well fitted inhibition curve with a large enough effect; inconclusive means small, poorly fitted or top-dose-only effect, or effect the other way; inactive means flat fitted curve, though single readings scatter. No potency is given beside an inconclusive call; the fits are too rough.
# Assay: VP16 counterscreen qHTS for inhibitors of ROR gamma transcriptional activity;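 further: Gal4-VP16 expression switched on by copper sulfate through the metallothionein promoter; nearly all actives have a fitted effect of over 50% in size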
# Conditions: Drosophila S2 Gal4-VP16 UAS-luciferase, luminescence, 20 h; series mostly up to 53.6 µM
# Potency means the concentration at half of the fitted maximal effect; tags describe the fitted curve by direction and shape.
row,Compound,Potency
1,C[n+]1ccccc1/C=C/c1cc(Br)ccc1O,inactive
2,CCOc1ccc(-n2c(-c3ccc(OC)cc3)c[n+]3c2CCCCC3)cc1,active: 2 µM
3,CCOC(=O)CNC(=O)CNC(=O)c1nn(-c2ccc(OC)c(Cl)c2)c(=O)c2ccccc12,inactive
4,COc1cccc(Nc2nc3ccccc3nc2NS(=O)(=O)c2ccc(NC(C)=O)cc2)c1,inactive
5,Cc1ccc(N(CC(=O)N/N=C/c2ccco2)S(=O)(=O)c2ccccc2)cc1,"inconclusive [inhibitor, single point]"
6,CCN(/N=C/c1ccc(Cl)cc1)c1cc(=O)n(C)c(=O)[nH]1,inactive
7,Cc1cn(C2CC(O)C(CO)O2)c(=O)[nH]c1=O (stereo unspecified),inactive
8,CCn1ccnc1CN1CCc2c([nH]c3ccccc23)C1C(C)(C)C (stereo unspecified),"inconclusive [inhibitor, partial curve, poor fit]"
9,O=C(Nc1nc2cc3c(cc2s1)OCCO3)c1cccc(N2C(=O)CCC2=O)c1,"inconclusive [inhibitor, single point]"
10,CCC1CCCCN1C(=O)CCNC(=O)Cn1cnc2ccccc2c1=O (stereo unspecified),inactive
11,NC(=O)c1ccc(NCC2COc3ccccc3O2)c([N+](=O)[O-])c1 (stereo unspecified),"inconclusive [inhibitor, single point]"
12,CC(C)c1nc(N2CCOCC2)c(C#N)c2c1CCCC2,inactive
13,CCc1ccc(-c2ccc(SCC(=O)NCC3CCCO3)nn2)cc1 (stereo unspecified),"inconclusive [inhibitor, single point]"
14,COc1cccc(OCCNC(=O)c2cccc(OC)c2)c1,"inconclusive [inhibitor, single point]"
15,Nc1c(-c2ccc(Cl)cc2)cnn1-c1cccc(C(F)(F)F)c1,inactive
16,Cc1ccc2[nH]c(C(=O)N/N=C/c3ccc([N+](=O)[O-])cc3)c(C)c2c1,inactive
17,CN1CC(=O)NC1=NC(=O)C12CC3CC(CC(C3)C1)C2,active: 3.98 µM
18,CCC(C)Nc1nc2c(c(=O)n(C)c(=O)n2C)n1Cc1cccc(C)c1 (stereo unspecified),inactive
19,COC(=O)c1[nH]c2cc(OC)ccc2c1NC(=O)c1nonc1C,"inconclusive [inhibitor, single point]"
20,Cc1cccc(NC(=S)NC(=O)/C=C/c2ccco2)c1,"inconclusive [inhibitor, single point]"
21,CC(C)(C)c1ccc(OCC(=O)Nc2ccncc2)c(Br)c1,"inconclusive [inhibitor, single point]"

row,Compound,Potency
1,COc1ccccc1N1CCN(C(=O)CSc2nc3ncnc(N)c3[nH]2)CC1,inactive
2,Cc1nnc(NC(=O)CSc2nc3[nH]ncc3c(=O)[nH]2)s1,inactive
3,N#Cc1cccc(-c2cncnc2NCc2cccs2)c1,inactive
4,COc1ccc([C@]23Cc4ccccc4C(O2)C2=C(CC4(CCCCC4)OC2=O)O3)cc1,"inconclusive [inhibitor, single point]"
5,CON1C(=O)C(=O)N(OC)C(C)(C)C1(C)C,"inconclusive [inhibitor, single point]"
6,O=C(NCc1ccccc1)c1cccc(COc2cc(Cl)ccc2Cl)c1,"inconclusive [activator, full curve, poor fit]"
7,COC(=O)CCCCCN1C(=O)NC(CC2CC2)C(C(=O)OCc2ccccc2)=C1C (stereo unspecified),"inconclusive [inhibitor, partial curve]"
8,CCNC(=O)CN(c1ccc(F)cc1)S(=O)(=O)c1ccc2c(c1)OCCO2,inactive
9,CC(NC(=O)C(=O)NN=C1CCCC1)c1ccccc1 (stereo unspecified),inactive
10,CC1=CN2C(=N)/C(=C/c3cn(CCCOc4ccccc4C)c4ccccc34)C(=O)N=C2S1,"inconclusive [inhibitor, partial curve]"
11,COc1ccc(S(=O)(=O)N2CCCC(C(=O)NC3CC3)C2)cc1Cl (stereo unspecified),inactive
12,COc1ccc(NC(=O)c2csc3c2CCCC3)cc1,"inconclusive [activator, full curve, poor fit]"
13,CC(CN(C)Cc1nc(Cc2cccc(C(F)(F)F)c2)no1)CN1CCCC1 (stereo unspecified),inactive
14,CCOC(=O)C1=C(C)Nc2ccc(C)cc2S1,inactive
15,Cc1ccc(S(=O)(=O)N(CC(O)CN2C(=O)NC(C)(C)C2=O)c2cccc([N+](=O)[O-])c2)cc1 (stereo unspecified),"inconclusive [inhibitor, single point]"
16,Oc1ccc(CN2CCc3ccccc3C2)c2cccnc12,"inconclusive [inhibitor, partial curve, poor fit]"
17,CCC1CCCCN1C(=O)c1ccc2nc(Cc3ccc(OC)cc3)oc2c1 (stereo unspecified),"inconclusive [inhibitor, single point]"
18,CCCCNC(=O)CCc1nc2cccnc2n1Cc1ccccc1,inactive
19,c1ccc(CSc2nnc(-c3cccnc3)o2)cc1,"inconclusive [activator, full curve, poor fit]"
20,CC(=O)Nc1cccc(-c2csc(Nc3ncccn3)n2)c1,inactive
21,Cn1cccc1C(=O)N1CCC2(CCCN(C(c3ccccc3)c3ccccc3)C2)CC1,inactive

row,Compound,Potency
1,CC(C)(C)c1ccc(C(=O)Nc2ccc(O)c3c(=O)cc(-c4cccc(Cl)c4)oc23)cc1,inactive
2,Cc1cc(NC(=O)c2ccc(S(=O)(=O)N3CCc4ccccc43)cc2)no1,"inconclusive [inhibitor, single point]"
3,CCOc1cc(-c2ccc(N)c(OCC)c2)ccc1N,inactive
4,O=C(NNc1c2ccccc2nc2ccccc12)C(O)c1ccccc1 (stereo unspecified),"inconclusive [inhibitor, single point]"
5,O=S(=O)(/N=C(/Nc1cccc2ccccc12)c1ccccc1)c1ccc(F)cc1,inactive
6,Cc1cccc(NC(=S)NCc2ccc3c(c2)OCO3)c1C,active: 12.6 µM
7,COc1cc(/C=C2\N=C(C)OC2=O)cc(Cl)c1OC(C)=O,inactive
8,O=C(Nc1ccc2oc(-c3ccncc3)nc2c1)c1ccccc1F,inactive
9,CN1C(=O)/C(=C/c2ccccc2OCc2ccccc2)NC1=S,"inconclusive [inhibitor, single point]"
10,CC(NC(=O)CCc1nnc(-c2ccc(-c3ccccc3)cc2)o1)c1nc2ccccc2[nH]1 (stereo unspecified),"inconclusive [inhibitor, single point]"
11,COc1cc(NC(=S)NCCc2ccc(S(N)(=O)=O)cc2)c(OC)cc1Cl,inactive
12,O=C(Nc1ccc(F)c(F)c1)c1oc2ccccc2c1NC(=O)C1CCCO1 (stereo unspecified),"inconclusive [activator, partial curve]"
13,S=C(NCCC1=CCCCC1)Nc1ccc(Cl)cc1,"inconclusive [inhibitor, single point]"
14,CC(C)(C)C(=O)NC(=S)NNC(=O)C(c1ccccc1)c1ccccc1,active: 11.2 µM
15,CNc1ncnc2c1ncn2[C@@H]1O[C@H](CO)[C@@H](O)[C@@H]1O,inactive
16,CN(Cc1ccccc1)C(=S)Nc1ccc2nc3n(c(=O)c2c1)CCCCC3,inactive
17,O=C(CN1CCN(Cc2ccccc2)CC1)NC(=O)NCc1ccco1,"inconclusive [inhibitor, single point]"
18,COc1ccccc1C(=O)NC(=S)Nc1cccnc1Cl,"inconclusive [inhibitor, single point]"
19,COc1ccc(C(=O)/C=C2/C(=O)Nc3ccccc32)cc1,"inconclusive [inhibitor, single point]"
20,N#C/C(=C\c1ccc(Sc2nc3ccccc3[nH]2)o1)c1ccccc1,"inconclusive [inhibitor, single point]"
21,Cc1ccc(CNC(=O)c2nn(C)c(C)c2[N+](=O)[O-])cc1,inactive

row,Compound,Potency
1,COc1cc(NC(=O)c2ccco2)c(OC)cc1NC(=O)CSc1ncc(-c2ccc(F)cc2)[nH]1,inactive
2,Cc1cccc(NC(=S)NCc2ccccc2Cl)c1C,active: 3.98 µM
3,O=C(Nc1ccc(S(=O)(=O)N2CCCCCC2)cc1)c1[nH]ncc1[N+](=O)[O-],"inconclusive [activator, single point]"
4,COc1cc(C2C3C(=O)N(Cc4ccccc4)C(=O)C3ON2c2ccccc2)cc(OC)c1O (stereo unspecified),inactive
5,CC1(OC(=O)c2cccs2)C(=O)C=C2C=C3CCCN3C=C2C1=O (stereo unspecified),inactive
6,CC1S/C(=N/N=C2CCC(C(C)(C)C)CC2)NC1=O (stereo unspecified),active: 5.01 µM
7,Cc1ccc(OCCCn2ccnc2)c(Br)c1,"inconclusive [inhibitor, single point]"
8,Cc1ccc(-c2sc(C(=O)NN)c(C)c2C#N)cc1,active: 7.08 µM
9,CCOc1ccc(S(=O)(=O)NCc2ccccc2)cc1C(N)=O,"inconclusive [inhibitor, single point]"
10,COC(=O)c1c(N2C(=O)CCC2=O)sc2c1CCCC2,inactive
11,CCc1nc(OCCN(CC)CC)c2oc3ccccc3c2n1,inactive
12,Cc1ccc(NC(=O)C(OC(=O)c2cc(C)oc2C)c2ccccc2)cc1 (stereo unspecified),inactive
13,O=C(Cn1nnc(-c2ccccc2F)n1)N1CCCCC1,inactive
14,CCOC(=O)c1c(NC(=O)CNCCOC)sc2c1CCCC2,active: 1.58 µM
15,CC1CCN(c2nc(/C=C/c3ccccc3)nc3ccccc23)CC1,"inconclusive [inhibitor, single point]"
16,O=C(Nc1ccc(-c2nc3ccccc3[nH]2)cc1)c1c(F)c(F)c(F)c(F)c1F,inactive
17,COc1ccc(CC(=O)Nc2nnc(SCc3ccccc3)s2)cc1S(=O)(=O)N1CCOCC1,"inconclusive [inhibitor, single point]"
18,N=c1c(C(=O)NCc2ccco2)cc2c(=O)n3ccccc3nc2n1Cc1ccccc1,inactive
